According to paper PMC9911399, “Two distinct binding modes provide the RNA-binding protein RbFox with extraordinary sequence specificity”:
Numbering of substitutions follows the chain as printed; changes in the protein carry UniProt numbers. This is one part of the list.

T1: RBFOX1 RRM RbFoxmut (Fox-RRM*) (Homo sapiens, UniProt Q9NWB1 109-208, R118D;E147R;N151S;E152T)
T1 sequence: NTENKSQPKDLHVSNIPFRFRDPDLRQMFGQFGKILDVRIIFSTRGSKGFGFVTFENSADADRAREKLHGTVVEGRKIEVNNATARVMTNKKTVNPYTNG

B1: ACUCUAC (DNA:RNA)
RNA: GGGAGACCGGAAUUCAGAUUGUCCACUCUACUUAAAUCCCGUCGUAGCCACCA
DNA 1: CAATCTGAATTCCGGTCTCCC
DNA 2: TGGTGGCTACGACGGGATT
B2: GAUGAGG (DNA:RNA)
RNA: B1 RNA with A25G, C26A, C28G, U29A, A30G, C31G
DNA 1: CAATCTGAATTCCGGTCTCCC
DNA 2: TGGTGGCTACGACGGGATT
B3: GUCGGCA (DNA:RNA)
RNA: GGGAGACCGGAAUUCAGAUUGUCCGUCGGCAUUAAAUCCCGUCGUAGCCACCA
DNA 1: CAATCTGAATTCCGGTCTCCC
DNA 2: TGGTGGCTACGACGGGATT
B4: AACUCGA (DNA:RNA)
RNA: B3 RNA with G25A, U26A, G28U, G29C, C30G
DNA 1: CAATCTGAATTCCGGTCTCCC
DNA 2: TGGTGGCTACGACGGGATT
B5: UGGAAUA (DNA:RNA)
RNA: B3 RNA with G25U, U26G, C27G, G28A, G29A, C30U
DNA 1: CAATCTGAATTCCGGTCTCCC
DNA 2: TGGTGGCTACGACGGGATT
B6: UAAGACC (DNA:RNA)
RNA: B3 RNA with G25U, U26A, C27A, G29A, A31C
DNA 1: CAATCTGAATTCCGGTCTCCC
DNA 2: TGGTGGCTACGACGGGATT
B7: UAAAUUA (DNA:RNA)
RNA: B1 RNA with A25U, C26A, U27A, C28A, A30U, C31A
DNA 1: CAATCTGAATTCCGGTCTCCC
DNA 2: TGGTGGCTACGACGGGATT
B8: AUCACCU (DNA:RNA)
RNA: B3 RNA with G25A, G28A, G29C, A31U
DNA 1: CAATCTGAATTCCGGTCTCCC
DNA 2: TGGTGGCTACGACGGGATT
B9: UCACUGU (DNA:RNA)
RNA: B1 RNA with A25U, U27A, A30G, C31U
DNA 1: CAATCTGAATTCCGGTCTCCC
DNA 2: TGGTGGCTACGACGGGATT
B10: CCGCGUG (DNA:RNA)
RNA: B1 RNA with A25C, U27G, U29G, A30U, C31G
DNA 1: CAATCTGAATTCCGGTCTCCC
DNA 2: TGGTGGCTACGACGGGATT
B11: AUGGUCA (DNA:RNA)
RNA: B3 RNA with G25A, C27G, G29U
DNA 1: CAATCTGAATTCCGGTCTCCC
DNA 2: TGGTGGCTACGACGGGATT
B12: AUAUCGC (DNA:RNA)
RNA: B1 RNA with C26U, U27A, C28U, U29C, A30G
DNA 1: CAATCTGAATTCCGGTCTCCC
DNA 2: TGGTGGCTACGACGGGATT
B13: GCCCGUC (DNA:RNA)
RNA: B1 RNA with A25G, U27C, U29G, A30U
DNA 1: CAATCTGAATTCCGGTCTCCC
DNA 2: TGGTGGCTACGACGGGATT
B14: AUGCCAC (DNA:RNA)
RNA: B1 RNA with C26U, U27G, U29C
DNA 1: CAATCTGAATTCCGGTCTCCC
DNA 2: TGGTGGCTACGACGGGATT
B15: AGUUUUG (DNA:RNA)
RNA: B1 RNA with C26G, C28U, A30U, C31G
DNA 1: CAATCTGAATTCCGGTCTCCC
DNA 2: TGGTGGCTACGACGGGATT
B16: AAGUGUU (DNA:RNA)
RNA: B1 RNA with C26A, U27G, C28U, U29G, A30U, C31U
DNA 1: CAATCTGAATTCCGGTCTCCC
DNA 2: TGGTGGCTACGACGGGATT
B17: CGUUGGC (DNA:RNA)
RNA: B1 RNA with A25C, C26G, C28U, U29G, A30G
DNA 1: CAATCTGAATTCCGGTCTCCC
DNA 2: TGGTGGCTACGACGGGATT
B18: CAGACAG (DNA:RNA)
RNA: B1 RNA with A25C, C26A, U27G, C28A, U29C, C31G
DNA 1: CAATCTGAATTCCGGTCTCCC
DNA 2: TGGTGGCTACGACGGGATT
B19: UUUAAUC (DNA:RNA)
RNA: B1 RNA with A25U, C26U, C28A, U29A, A30U
DNA 1: CAATCTGAATTCCGGTCTCCC
DNA 2: TGGTGGCTACGACGGGATT
B20: CGGGUCU (DNA:RNA)
RNA: B3 RNA with G25C, U26G, C27G, G29U, A31U
DNA 1: CAATCTGAATTCCGGTCTCCC
DNA 2: TGGTGGCTACGACGGGATT
B21: GGAUAUA (DNA:RNA)
RNA: B3 RNA with U26G, C27A, G28U, G29A, C30U
DNA 1: CAATCTGAATTCCGGTCTCCC
DNA 2: TGGTGGCTACGACGGGATT
B22: CGGAAGA (DNA:RNA)
RNA: B3 RNA with G25C, U26G, C27G, G28A, G29A, C30G
DNA 1: CAATCTGAATTCCGGTCTCCC
DNA 2: TGGTGGCTACGACGGGATT
B23: AGUUUUA (DNA:RNA)
RNA: B1 RNA with C26G, C28U, A30U, C31A
DNA 1: CAATCTGAATTCCGGTCTCCC
DNA 2: TGGTGGCTACGACGGGATT
B24: UCUUAGU (DNA:RNA)
RNA: B1 RNA with A25U, C28U, U29A, A30G, C31U
DNA 1: CAATCTGAATTCCGGTCTCCC
DNA 2: TGGTGGCTACGACGGGATT
B25: GGCAUUA (DNA:RNA)
RNA: B3 RNA with U26G, G28A, G29U, C30U
DNA 1: CAATCTGAATTCCGGTCTCCC
DNA 2: TGGTGGCTACGACGGGATT
B26: UCCCGAG (DNA:RNA)
RNA: B1 RNA with A25U, U27C, U29G, C31G
DNA 1: CAATCTGAATTCCGGTCTCCC
DNA 2: TGGTGGCTACGACGGGATT
B27: AAUGUGA (DNA:RNA)
RNA: B1 RNA with C26A, C28G, A30G, C31A
DNA 1: CAATCTGAATTCCGGTCTCCC
DNA 2: TGGTGGCTACGACGGGATT
B28: GUUCUCC (DNA:RNA)
RNA: B1 RNA with A25G, C26U, A30C
DNA 1: CAATCTGAATTCCGGTCTCCC
DNA 2: TGGTGGCTACGACGGGATT
B29: GGAAUAG (DNA:RNA)
RNA: B1 RNA with A25G, C26G, U27A, C28A, C31G
DNA 1: CAATCTGAATTCCGGTCTCCC
DNA 2: TGGTGGCTACGACGGGATT
B30: UUUCGAG (DNA:RNA)
RNA: B1 RNA with A25U, C26U, U29G, C31G
DNA 1: CAATCTGAATTCCGGTCTCCC
DNA 2: TGGTGGCTACGACGGGATT
B31: GUAGACA (DNA:RNA)
RNA: B3 RNA with C27A, G29A
DNA 1: CAATCTGAATTCCGGTCTCCC
DNA 2: TGGTGGCTACGACGGGATT

biological target: T1, RBFOX1 RRM RbFoxmut (Fox-RRM*); assay: EMSA; HiTS-Eq, 1 nM pool, 10 min; buffer printed only for the single-RNA assays: 10 mM Tris pH 7.5, 150 mM NaCl, 3.4 mM EDTA, 0.001% NP-40, 30 C; conditions: tags: His6 N-terminal (pET28a); label: 5' 32P
Summary of the method: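 Purified wild-type or mutant RbFox RRM at increasing concentrations was equilibrated with 1 nM of 5′-radiolabelled RNA carrying 7 randomized nucleotides for 10 min in 50 µL. Unbound RNA was separated by 8% native PAGE and sequenced. Relative association constants came from read-count changes of each RNA species compared with the control reaction, normalised to the cognate motif.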

In order of falling binding signal:
1. B5  0.243 KA relative to UGCAUGU
2. B24  0.138 KA relative to UGCAUGU
3. B15  0.137 KA relative to UGCAUGU
4. B26  0.135 KA relative to UGCAUGU
5. B29  0.133 KA relative to UGCAUGU
6. B3  0.13 KA relative to UGCAUGU
7. B11  0.126 KA relative to UGCAUGU
8. B17  0.124 KA relative to UGCAUGU
9. B25  0.121 KA relative to UGCAUGU
10. B16  0.117 KA relative to UGCAUGU
11. B21  0.113 KA relative to UGCAUGU
12. B14  0.11 KA relative to UGCAUGU
13. B10  0.107 KA relative to UGCAUGU
14. B30  0.107 KA relative to UGCAUGU
15. B23  0.101 KA relative to UGCAUGU
16. B9  0.0994 KA relative to UGCAUGU
17. B20  0.0984 KA relative to UGCAUGU
18. B4  0.0909 KA relative to UGCAUGU
19. B8  0.088 KA relative to UGCAUGU
20. B22  0.0866 KA relative to UGCAUGU
21. B7  0.0827 KA relative to UGCAUGU
22. B2  0.0814 KA relative to UGCAUGU
23. B12  0.0788 KA relative to UGCAUGU
24. B1  0.0757 KA relative to UGCAUGU
25. B13  0.0748 KA relative to UGCAUGU
26. B6  0.0707 KA relative to UGCAUGU
27. B28  0.0692 KA relative to UGCAUGU
28. B31  0.0639 KA relative to UGCAUGU
29. B19  0.0571 KA relative to UGCAUGU
30. B18  0.0536 KA relative to UGCAUGU
31. B27  0.0495 KA relative to UGCAUGU
